Among all 340,000 compounds or so, fewer than 10 were called active. The shares of active, inactive and inconclusive entries below differ from those in the screen. The call rests on the fitted dose curve; in most records, active means well fitted inhibition curve with a large enough effect in the main read-out, with a control signal flat (not every such curve was filed as active); inconclusive means small, poorly fitted or top-dose-only effect, or effect the other way, or a change in a side signal; inactive means no such curve, though single readings can be large or run the other way. A potency beside an inconclusive call is a rough fit, not a confirmed value. “Side channel” marks fits to a control or component signal instead of the main read-out.
molecular target: Tumor susceptibility gene 101 protein (Homo sapiens) (UniProt Q99816); assay: qHTS Assay for Iinhibitors of HIV-1 Budding by Blocking the Interaction of PTAP/TSG101; settings: Fluorescence polarization, FITC-PTAP peptide / Tsg101 binding; activity change, negative = inhibition: at 115 µM (top of the series); on activity change, negative = inhibition: % of control where 0% means no effect
Chain of UniProt Q99816 (Q99816 whole entry, looked up, the tested form may be a part): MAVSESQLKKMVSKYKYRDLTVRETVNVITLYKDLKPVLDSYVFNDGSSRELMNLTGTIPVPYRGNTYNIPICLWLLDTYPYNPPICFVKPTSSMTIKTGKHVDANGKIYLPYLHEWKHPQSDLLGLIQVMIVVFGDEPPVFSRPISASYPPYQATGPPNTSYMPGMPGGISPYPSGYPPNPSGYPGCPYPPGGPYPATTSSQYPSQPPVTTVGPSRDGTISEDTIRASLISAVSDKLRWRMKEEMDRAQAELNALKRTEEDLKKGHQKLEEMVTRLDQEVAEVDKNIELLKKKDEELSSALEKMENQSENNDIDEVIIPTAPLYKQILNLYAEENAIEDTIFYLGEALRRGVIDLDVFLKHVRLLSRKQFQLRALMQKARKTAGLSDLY
In short: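 Fluorescence polarization binding of Tsg101 binding domain (10 uM final) to FITC-labeled PTAP peptide (50 nM final) in HEPES pH 7.5 buffer with NaCl, Tween 20, EDTA, TCEP. Compounds added before peptide; binding 20 min at RT.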
Potency means the concentration at half of the fitted maximal effect; tags describe the fitted curve by direction and shape or compound fluorescence and quenching.

SMILES	Potency	activity change, negative = inhibition
Brc1ccc(C2=CC(c3ccco3)n3ncnc3N2)cc1 (configuration not stated)	inconclusive: 56.2 µM [fluorescent, side channel, partial curve, poor fit]	
CC[C@H](C)/C=C(C)/C=C/C1=CC2=CC(=O)[C@]3(C)OC(=O)[C@@H](C(C)=O)[C@@H]3C2=CO1	inconclusive: 89.1 µM [falling, partial curve, poor fit]	
COc1cccc(/C=N/NC(=O)c2oc3nc(-c4ccccc4)cc(-c4ccco4)c3c2N)c1	inconclusive: 44.7 µM [fluorescent, side channel, partial curve, poor fit]	
CC1=CC2=NC(=O)/C(=C/c3coc4ccc(Cl)cc4c3=O)C(=N)N2O1	inconclusive: 56.2 µM [fluorescent, side channel, partial curve, poor fit]	
CCC(CC)C(=O)c1c[nH]c(C(=O)O)c1		inactive: -2.61%
C=Cc1ccc(N=Cc2c(O)ccc3ccccc23)cc1	inconclusive: 50.1 µM [fluorescent, side channel, partial curve]	
CC(=O)O[C@H]1CC[C@H]2[C@@H]3CCc4cc(O)ccc4[C@H]3CC[C@]12C		inactive: 0.759%
COc1ccc(/C=C2\SC(=S)N(CCCC(=O)Nc3ccccn3)C2=O)cc1OC	inconclusive: 79.4 µM [fluorescent, side channel, single point]	
C=CCOc1ccc(C2C(C(=O)c3cccs3)=C(O)C(=O)N2c2nnc(C)s2)cc1 (configuration not stated)	inconclusive: 63.1 µM [fluorescent, side channel, partial curve, poor fit]	
COc1cc(/C=C/c2sc3ccccc3[n+]2CCCS(=O)(=O)[O-])ccc1O	inconclusive: 56.2 µM [fluorescent, side channel, partial curve, poor fit]	
CC1(C)CC(=O)C2=C(C1)OC(N)=C(C#N)C2c1cc2c(cc1[N+](=O)[O-])OCO2 (configuration not stated)	inconclusive: 56.2 µM [falling, partial curve, poor fit]	
Cc1ccc(C(=O)Nc2ccc(C(=O)O)cc2)cc1S(=O)(=O)NCc1ccccc1	inconclusive: 12.6 µM [fluorescent, side channel, full curve]	
Cc1ccccc1C(=O)NNC(=O)C(C)N1C(=O)c2ccccc2C1=O (configuration not stated)		inactive: -1.34%
COCCNc1c(-c2ccc(OC)c(OC)c2)nc2ccc(Cl)cn12		inactive: 0.271%
CC(C)COc1cccc(-c2cc(C(=O)N/N=C/c3ccncc3)c3ccccc3n2)c1	inconclusive: 44.7 µM [quencher, side channel, partial curve, poor fit]	
Cc1ccc(NC(=O)CSc2ncccn2)c([N+](=O)[O-])c1		inactive: 0.658%
CCN(CC)c1ccc2cc(S(=O)(=O)c3ccc(Cl)cc3)c(=O)oc2c1	inconclusive: 79.4 µM [fluorescent, side channel, partial curve]	
O=C(C1=NN(c2ccccc2)C2C(=O)N(c3ccccc3Cl)C(=O)C12)c1ccccc1 (configuration not stated)	inconclusive: 79.4 µM [fluorescent, side channel, partial curve]	
Cc1cc(C)n(CC(=O)N/N=C/c2ccc([N+](=O)[O-])s2)n1		inactive: -3.12%

SMILES	Potency	activity change, negative = inhibition
Clc1ccc(C2=CC(c3ccco3)n3ncnc3N2)cc1 (configuration not stated)	inconclusive: 56.2 µM [fluorescent, side channel, partial curve, poor fit]	
CCOc1ccc(-c2c(C#N)c(N)nc3sc(C(=O)c4ccccc4)c(N)c23)cc1	inconclusive: 79.4 µM [fluorescent, side channel, partial curve, poor fit]	
O/C(=C\c1ccc2ccccc2n1)c1ccc(O)cc1O	inconclusive: 44.7 µM [fluorescent, side channel, partial curve, poor fit]	
CC(C)CN(CC(C)C)S(=O)(=O)N1CCC(C(=O)NCCc2ccc(Cl)cc2)CC1	inconclusive: 44.7 µM [quencher, side channel, partial curve, poor fit]	
COc1ccc2nc3ccccc3[n+]([O-])c2c1	inconclusive: 56.2 µM [fluorescent, side channel, partial curve, poor fit]	
COc1cccc2c1C(=O)c1c(O)c3c(c(O)c1C2=O)C[C@@](O)(C(=O)CO)C[C@@H]3O[C@H]1C[C@H](N)[C@@H](O)[C@H](C)O1	inconclusive: 56.2 µM [fluorescent, side channel, partial curve, poor fit]	
CC(=O)O[C@H]1[C@H](O)[C@H](Oc2c(O)c(C)c3c4c2[C@@H](C)CC[C@@H]4[C@@H](C)C[C@H]3C=C(C)C)O[C@@H](C)[C@H]1O	inconclusive: 31.6 µM [quencher, side channel, partial curve, poor fit]	
O=S(=O)(c1ccc(NC(=S)N/N=C/c2c3ccccc3cc3ccccc23)cc1)N1CCOCC1	inconclusive: 56.2 µM [fluorescent, side channel, partial curve, poor fit]	
CSCc1nc2scc(-c3ccccc3)c2c(=O)[nH]1		inactive: -3.9%
Cc1cc(/C=C2\SC(=S)N(Cc3ccco3)C2=O)c(C)n1-c1cccnc1	inconclusive: 79.4 µM [fluorescent, side channel, partial curve]	
CCN(CC)c1ccc(N=Cc2ccc(N(CC)CC)cc2O)cc1	inconclusive: 56.2 µM [fluorescent, side channel, partial curve, poor fit]	
Cc1ccccc1NC(=O)c1cccc(NC(=O)c2ccco2)c1		inactive: -3.39%
Cc1nn(C)c(C)c1N=Cc1c(O)ccc2ccccc12	inconclusive: 79.4 µM [fluorescent, side channel, partial curve, poor fit]	
CCNC(=S)Nc1ccc(Cl)cc1		inactive: 0.241%
O=C(N/N=C/c1cccs1)c1n[nH]c2c1CCCC2		inactive: 0.413%
O=C(Cc1ccccc1[N+](=O)[O-])NCCC1=CCCCC1		inactive: 0.181%
C[C@@H]1CN([C@H](C)CO)C(=O)c2cc(NC(=O)Nc3ccc(C(F)(F)F)cc3)ccc2O[C@H]1CN(C)S(=O)(=O)c1cccs1		inactive: -1.64%
N=C1C(c2ccccc2)=C(O)CN1c1ccccc1		inactive: -5.36%
O=C(O)c1ccccc1-c1ccc(/C=c2\sc3nc4cc(Br)cnc4n3c2=O)o1	inconclusive: 56.2 µM [fluorescent, side channel, partial curve, poor fit]	

SMILES	Potency	activity change, negative = inhibition
Cc1ccc(C)c2nc3sc(C(=O)N4CCCc5ccccc54)c(N)c3cc12	inconclusive: 56.2 µM [fluorescent, side channel, partial curve, poor fit]	
COCCCNc1c2c3c(cccc3[nH]c1=O)C(=O)c1ccccc1-2	inconclusive: 10 µM [fluorescent, side channel, full curve]	
O=C(NCC1CCCO1)c1cccc2c1C(=O)c1ccc(N3CCC(Cc4ccccc4)CC3)cc1S2(=O)=O (configuration not stated)	inconclusive: 79.4 µM [fluorescent, partial curve]	
O=C(NN=Cc1c(O)ccc2ccccc12)c1ccncc1	inconclusive: 56.2 µM [fluorescent, side channel, partial curve, poor fit]	
COc1ccc(CCC(=O)Nc2ccc(C)c([N+](=O)[O-])c2)cc1		inactive: -0.762%
O=C(c1cnn(C(=O)c2ccco2)c1)c1cc(Cl)cc(Cl)c1O	inconclusive: 50.1 µM [falling, partial curve, poor fit]	
C[C@H](NC(=O)c1nc[nH]c1C(=O)N[C@@H](Cc1ccccc1)C(=O)OC(C)(C)C)c1ccccc1	inconclusive: 28.2 µM [quencher, side channel, partial curve, poor fit]	
Cc1ccc(S(=O)(=O)N2CCCCC2)cc1NC(=O)CSc1ncn[nH]1	inconclusive: 89.1 µM [fluorescent, side channel, partial curve]	
Cc1cccc(C(=O)Oc2ccccc2/C=N/Nc2ccc([N+](=O)[O-])cc2)c1	inconclusive: 89.1 µM [quencher, side channel, partial curve, poor fit]	
CC(=O)N/C(=C\c1ccccc1)C(=O)OCC(=O)N(C)C1CCCCC1		inactive: -1.41%
Cc1ccccc1CSCC(=O)Nc1ccccc1-c1ccccc1		inactive: -0.0308%
O=C(OCCNc1ccc(C(F)(F)F)cc1[N+](=O)[O-])c1cc2ccccc2oc1=O	inconclusive: 79.4 µM [fluorescent, side channel, single point]	
COc1ccccc1NC(=O)/C(C#N)=C/c1cc([N+](=O)[O-])ccc1N1CCCC1	inconclusive: 79.4 µM [fluorescent, side channel, partial curve, poor fit]	
O=C(/C=C/c1ccccc1)c1cc(Br)ccc(=O)c1O		inactive: -20.7%
CN1/C(=C/C=C(C#N)C#N)C=Cc2ccccc21	inconclusive: 50.1 µM [fluorescent, side channel, partial curve, poor fit]	
CCCCOc1ccc2c(C)cc(=O)oc2c1OCCCC	inconclusive: 44.7 µM [quencher, side channel, partial curve, poor fit]	
O=C1CN(C(=O)COC(=O)c2cccc(OCc3ccccc3)c2)c2ccccc2N1	inconclusive: 20 µM [quencher, side channel, partial curve, poor fit]	
Cc1cccc(NC(=O)/C(C#N)=C/c2cn(CC(=O)NCc3ccco3)c3ccccc23)c1		inactive: 2.42%
COc1ccccc1N=C1NC(=O)/C(=C/c2ccc(N(C)C)cc2)S1	inconclusive: 44.7 µM [fluorescent, side channel, partial curve, poor fit]	
